Test results as given in patent EP0021685A1, “A-30912 H-type antibiotics, their preparation and use” (ELI LILLY AND COMPANY, priority 1979, dated 1981).

System: Candida albicans
Test: Disc-diffusion antifungal test
Conditions: pads dipped in solutions containing 10 mg/ml of test compound
Method: The A-30912H-type antibiotics are antifungal agents which are especially active against Candida species. This invention relates further, therefore, to a method of treating fungal infections in mammals which comprises administering to the mammal an effective amount of an A-30912H-type antibiotic. In these tests the antifungal activity was measured by the disc-diffusion method (6-mm pads were dipped in solutions containing test compounds; pads were placed on agar plates seeded with the test organism). Table III gives the minimal inhibitory concentration (MIC) per disc at which A-30912H inhibited the test organism.
Table IV gives the diameters (in mm) of the observed zones of inhibition for typical A-30912H-type derivatives. The test compounds were compounds of formula I wherein R^1 is linoleoyl; the pads were (dipped in solutions containing 10 mg/ml of test compound).

Row | SMILES | Zone diameters (mm)
1 | CCCCC/C=C\C/C=C\CCCCCCCC(=O)N[C@H]1C[C@@H](O)[C@@H](OCCCCCC)NC(=O)[C@@H]2[C@@H](O)[C@@H](C)CN2C(=O)[C@H]([C@@H](C)O)NC(=O)[C@H]([C@H](O)[C@@H](O)c2ccc(O)cc2)NC(=O)[C@@H]2C[C@@H](O)CN2C(=O)[C@H]([C@@H](C)O)NC1=O [R = n-hexyl] | 14
2 | CCCCC/C=C\C/C=C\CCCCCCCC(=O)N[C@H]1C[C@@H](O)[C@@H](OCCC)NC(=O)[C@@H]2[C@@H](O)[C@@H](C)CN2C(=O)[C@H]([C@@H](C)O)NC(=O)[C@H]([C@H](O)[C@@H](O)c2ccc(O)cc2)NC(=O)[C@@H]2C[C@@H](O)CN2C(=O)[C@H]([C@@H](C)O)NC1=O [R = n-propyl] | 16
